Measurements from paper PMC6919601, “Identification of Plasmodium dipeptidyl aminopeptidase allosteric inhibitors by high throughput screening” (PLoS ONE, 2019).
The campaign covered roughly 110,000 compounds. About 230 (0.21%) showed an effect of 50% or more. Some of the results follow.

These molecules were tested against DPAP1 (Plasmodium falciparum, UniProt Q8IIJ9) (assay: primary screen, percent inhibition; read by cleavage of a fluorogenic dipeptide substrate; higher = more effect of the substance).
Parameters: species or system P. falciparum D10 trophozoite lysates; single well
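Further: 30 min substrate incubation versus DMSO and 10 µM JCP410 controls.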

Sequence of DPAP1 (Q8IIJ9 whole entry, looked up): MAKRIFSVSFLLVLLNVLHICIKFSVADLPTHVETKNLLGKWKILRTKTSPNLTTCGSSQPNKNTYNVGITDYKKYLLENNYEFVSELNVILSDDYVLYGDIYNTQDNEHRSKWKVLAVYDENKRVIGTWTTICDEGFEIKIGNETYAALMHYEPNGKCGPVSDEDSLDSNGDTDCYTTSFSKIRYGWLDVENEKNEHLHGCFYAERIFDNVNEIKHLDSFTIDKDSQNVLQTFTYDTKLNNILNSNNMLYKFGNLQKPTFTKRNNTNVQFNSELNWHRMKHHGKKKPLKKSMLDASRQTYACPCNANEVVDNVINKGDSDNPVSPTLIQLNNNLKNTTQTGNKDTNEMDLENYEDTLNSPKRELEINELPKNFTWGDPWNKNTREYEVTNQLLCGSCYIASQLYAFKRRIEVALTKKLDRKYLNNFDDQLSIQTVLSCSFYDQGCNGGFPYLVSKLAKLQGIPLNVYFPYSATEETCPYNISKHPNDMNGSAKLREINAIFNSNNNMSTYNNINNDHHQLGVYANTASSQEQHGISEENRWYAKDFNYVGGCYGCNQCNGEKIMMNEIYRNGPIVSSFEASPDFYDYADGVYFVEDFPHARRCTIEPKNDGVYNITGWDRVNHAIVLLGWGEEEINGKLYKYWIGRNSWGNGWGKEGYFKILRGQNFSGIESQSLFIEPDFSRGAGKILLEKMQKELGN

Structure (SMILES)	% Inhibition @ 10 uM
CCOC(=O)c1c(C)[nH]c(C)c1S(=O)(=O)NCC(=O)Nc1nc2ccc(C)cc2s1	-3.61%
CCOC(=O)c1c(NC(=O)CSc2ccccc2)sc2c1CCCC2	-5.5%
CC(C)C(=O)Nc1ccc(NC(=O)c2ccc(F)cc2)cc1	-2.77%
CCN(c1ccccc1)c1nc2nonc2n2cnnc12	0.0792%
CCOc1ccc(-c2nc(-c3ccc(-n4cccc4)cc3)no2)cc1OCC	-0.403%
Cc1cccc2c3c4n(c12)CC1COC4(CCC3)O1 (centres unmarked)	-10.7%
CC1=C(C(=O)Nc2ccccn2)C(c2ccc(Cl)cc2)NC(S)=N1 (centres unmarked)	-0.339%
O=C1c2ccccc2C(O)(c2ccc(Br)cc2)N1c1ccccc1 (centres unmarked)	-0.591%
COc1ccc(NC(=O)C(=O)NCC(C)C)c(OC)c1	2.94%
CCN(c1ccccc1)S(=O)(=O)c1ccc(NC(=O)COc2cc(C)ccc2C)cc1	3.21%
Cc1nc2ccc(S(=O)(=O)NC(C(=O)N(C)Cc3ccccc3)c3ccccc3)cc2s1 (centres unmarked)	-0.522%
CCC12CN3CC(C)(CN(C1)C3c1c(C)n(Cc3ccccc3)c3ccccc13)C2=O (centres unmarked)	-1.31%
O=C(O)CC(c1ccccc1)N1C(=O)c2ccccc2C1=O (centres unmarked)	-11.5%
CCOc1ccccc1NC(=O)COc1ccc(C)cc1	1.59%
CC(C)(C)C[C@H](N[C@@H](c1ccc(F)cc1)C(F)(F)Sc1ccc(F)cc1)C(=O)NC1(C#N)CC1	-3.14%
Clc1nc2c(-c3ccccc3)nnn2c2ccccc12	-3.48%
CCN(CC)CCN(C)CCC1=C(C)CCCC1(C)C	1.37%
O=C(CN(CCc1ccccc1)S(=O)(=O)c1ccccc1)N1CCOCC1	-9.24%
CC1CCC(NC(=O)c2ccc(CNS(=O)(=O)c3ccc(F)cc3)cc2)CC1 (centres unmarked)	-2.72%
Cc1ccc(C(=O)N2CCC(Cc3ccccc3)CC2)cc1S(=O)(=O)N1CCCCC1	-1.54%
O=C(NCCN1CCCC1)c1ccccc1Br	-1.78%
COc1ccc(OC)c(C2/C(=C(\O)OCc3ccccc3)C(C)=Nc3nnnn32)c1 (centres unmarked)	2.93%
O=C(Nc1sc2c(c1C(=O)N1CCCCC1)CCCC2)c1cccs1	10.9%
N#CC1=C(N)Oc2oc3ccccc3c(=O)c2C1c1ccc(F)cc1 (centres unmarked)	-4.67%
O=C(NCCc1ccccc1)C1CCN(C(=O)c2ccc(-n3ccc4ccccc43)s2)CC1	4.92%
COc1ccc(Cn2c(SCc3ccc(C(=O)NC4CC4)cc3)nc3cccnc32)cc1	3.46%

Structure (SMILES)	% Inhibition @ 10 uM
Cc1ccc(OCC(=O)Nc2ccc(S(=O)(=O)Nc3ccc(C)cc3C)cc2)cc1	-5.92%
CCOC(=O)c1cc(-c2ccc(F)cc2)n(CC(=O)N2CCn3c2nc2ccccc23)c1C	1.5%
CCN(Cc1ccccc1)Cc1cc(Br)ccc1O	-4.03%
CC(=O)N1N=C2C3CCN(CC3)C2C1c1cccc2ccccc12 (centres unmarked)	5.21%
CCn1c(SCC(=O)Nc2ccc(OC)cc2OC)nc2c1c(=O)n(C)c(=O)n2C	1.03%
CCOCCCNC(=O)C1CCN(S(=O)(=O)N2CCCCC2)CC1	2.05%
Cc1ccccc1-c1nc(CSCC(=O)NCc2ccc3c(c2)OCO3)c(C)o1	0.689%
O=C(CSc1nc(O)cc(=O)n1C1CCCCC1)N1CCCCC1	3.62%
Cc1ccc2oc(=O)c3cc(C(=O)NCCc4ccsc4)sc3c2c1	2.78%
O=C(NCCNC(=O)c1ccccc1O)c1ccccc1O	4.55%
CCSCCOC(=O)C1=C(C)NC(=O)NC1c1ccc(Cl)cc1Cl (centres unmarked)	-1.59%
Cn1nc(CC(=O)O)c2ccccc2c1=O	0.279%
N#C/C(=C/c1cccc(F)c1)c1nc(-c2ccc(Br)cc2)cs1	-8.11%
O=C(O)c1csc(-n2cccc2)n1	-8.96%
O=C(CCCn1sc2ccccc2c1=O)NCc1ccc2c(c1)OCO2	-4.68%
CCSc1nc2sc3c(c2c(=O)n1CC)CC(C)(C)OC3	3.32%
Cc1ccc2c(c1)c(=O)c1c3n2CCN(CC#N)C3CC1 (centres unmarked)	0.716%
COC(=O)c1ccc(C2Oc3ccccc3C3=C2C(c2ccccc2F)n2ncnc2N3)cc1 (centres unmarked)	-5.19%
CC1=CC(c2ccccc2)NC(S)=N1 (centres unmarked)	-5.59%
CCN(CC)c1ccc(NC(=O)c2cnn(CC)c2)cc1	-4.43%
Cc1ccc(S(N)(=O)=O)c(C)c1-n1cnnn1	-5.53%
CCC(=O)Nc1ccc(NCc2cc(Cl)cc(Cl)c2OC)cc1	-3.26%
CNC(=O)C1CC(=O)N(Cc2ccc(F)cc2)/C(=N/c2cccc(C(F)(F)F)c2)S1 (centres unmarked)	-6.27%
c1nc(CCNC2CCCCCCC2)c[nH]1	4.75%
CCCCNC1=N/C(=C\c2ccco2)C(=O)N1c1ccccc1	2.62%
O=C(NC1CCSC1=O)c1ccc(Cl)cc1Cl (centres unmarked)	-1.22%

Structure (SMILES)	% Inhibition @ 10 uM
COc1cc(/C=C/c2nc(C#N)c(NCc3ccco3)o2)cc(OC)c1OC	-2.57%
OC(CO/N=C(/c1ccc(Br)cc1)c1cccnc1)CN1CCN(c2ccccc2)CC1 (centres unmarked)	0.986%
COCCCNC(=O)CN(C)S(=O)(=O)c1ccc(Cl)cc1	-2.29%
CC(NC(=O)c1nc[nH]n1)c1ccc(-c2ccccc2)cc1 (centres unmarked)	-3.33%
Cc1ccc(C2C(C#N)=C(N)OC3=C2C(=O)CCC3)c(C)c1 (centres unmarked)	-5.07%
COc1ccccc1C1CC(=O)NC(C)=C1C(=O)OCC1CCCCC1 (centres unmarked)	0.8%
Cc1oc(-c2ccc(C(=O)N3CCN(C)CC3)cc2)nc1COc1ccccc1	3.96%
O=C(O)C1C2C=CC(C2)C1C(=O)NC1CCCCCC1 (centres unmarked)	-1.88%
COc1ccc(C2C(C#N)=C(N)Oc3[nH]nc(C)c32)cc1COc1cccc(Cl)c1 (centres unmarked)	35.9%
Cc1sc(C(=O)O)cc1-c1ccc(C(=O)N[C@@H](CC(C)C)C(=O)NCC#N)cc1	2.87%
CCCCc1ccc(NC(=O)c2ccccc2C(=O)O)cc1	0.658%
CC1=C(C(=O)OCC(F)(F)F)C(c2ccc(Cl)c(Cl)c2)NC(=O)N1 (centres unmarked)	1.6%
Cc1nnc(N2CCCC(C(=O)NCCN3CCN(C)CC3)C2)c2nn(-c3ccccc3)c(C)c12 (centres unmarked)	4.56%
O=C(CC(C(=O)O)C1CCCO1)NC1CCCCC1 (centres unmarked)	4.95%
CCC(C)S(=O)(=O)c1oc(-c2cccs2)nc1S(=O)(=O)c1ccc(F)cc1 (centres unmarked)	-2.99%
CCCO/C(O)=C1\C(C)=Nc2nnnn2C1c1ccccc1OCC (centres unmarked)	-3.53%
Oc1ncnc2onc(-c3ccc(F)cc3)c12	3.54%
CCOc1ccc(CNc2ccc(F)c(Cl)c2)cc1	4.55%
CCOC(=O)c1[nH]c2ccccc2c1NC(=O)CSCc1ccccc1	1.5%
CCc1ccccc1NC(=O)c1cccnc1Cl	2.43%
Brc1ccc(OCc2nnnn2-c2ccccc2)cc1	-1.11%
O=C1/C(=C/c2cccs2)CS/C1=C/c1cccs1	-3.21%
CCCCN(C)CCNC(=O)c1cc2cc3ccc(C)cc3nc2o1	-1.54%
CC(C)(C)NS(=O)(=O)c1ccc(OCC(=O)Nc2ccc3c(c2)OCCO3)cc1	-2.09%
CCOC(=O)N1CCN(S(=O)(=O)c2ccc(Br)c(OCC)c2)CC1	-1.51%
Cc1ccc2nc(C)cc(NC3CCCCC3)c2c1	-5.01%

Structure (SMILES)	% Inhibition @ 10 uM
CC(Oc1ccc(Cl)cc1Cl)C(=O)O/N=C(\N)c1cccnc1 (centres unmarked)	-6.86%
COc1ccc(S(=O)(=O)N(C)CC(=O)Nc2ccc3c(c2)OCCO3)cc1	0.873%
O=C(O)c1cnc2ccc(Br)cc2c1O	0.51%
N#Cc1c(N)n(-c2ccccc2)c2nc3ccccc3nc12	-5.5%
Cc1cc2nc(C)n(CCCNC(=O)NC34C[C@H]5C[C@@H](C3)C[C@@H](C4)C5)c2cc1C	-0.551%
Cc1cc(S(=O)(=O)c2cc3ccccc3oc2=O)ccc1F	-3.1%
Fc1ccccc1-c1nc(N2CCN(Cc3ccccc3)CC2)c2ccccc2n1	1.86%
CCCc1nc2nc(C)cc(NCc3ccccc3Cl)n2n1	3%
CC(=O)c1cccc(NC(=O)C2CC2(c2ccccc2)c2ccccc2)c1 (centres unmarked)	-0.872%
COc1ccc(OC)c(S(=O)(=O)N2CCC(C)CC2)c1	2.72%
CC(=O)N1c2ccccc2C(C)(c2ccccc2)CC1(C)C (centres unmarked)	0.132%
COc1cccc2c1ncc1c(C)nn(-c3ccc(F)cc3)c12	-9.23%
O=C1c2ccccc2C(=O)N1CN(C(=O)C(F)(F)F)c1ccc(Br)cc1	-7.31%
CC(C)OCCCNC(=O)Cn1nc(-c2ccccc2)ccc1=O	-2.99%
COc1ccc(-c2cn3cc(-c4ccc(C)cc4)n(C)c3n2)cc1	3.93%
Cc1cccc2[nH]ncc12	-5.32%
O=C(O)CNS(=O)(=O)c1ccc2c(c1)C(=O)c1cc(S(=O)(=O)NCC(=O)O)ccc1-2	1.97%
CCOc1ccc(NC(=O)c2ccc(CNS(=O)(=O)c3cccc(Cl)c3)cc2)cc1	3.65%
NS(=O)(=O)c1ccc(NC(=O)CCSc2nc(O)c3c4c(sc3n2)CCC4)cc1	7.1%
COc1ccc(NC(=O)COc2ccc(S(=O)(=O)NC3CCCCC3)cc2)cc1	-3.77%
Cc1cccn2c(=O)c3cc(C(=O)NC4CCCCC4)n(C)c3nc12	9.56%
O=C1c2ccccc2C(=O)N1CCSC(=S)N1CCOCC1	-3.72%
O=C(Nc1nccs1)c1cc(-c2ccc3c(c2)OCO3)nc2ccccc12	-8.28%
